The whole screen tested about 310,000 compounds, of which about 14,000 (4.5%) showed an effect of 50% or more. The effect is printed as a negative number. The list shows a part of the results.
Target: human ether-à-go-go-related gene (hERG) potassium channel (human, UniProt Q12809)
Experiment: primary screen, population patch clamp on CHO cells stably expressing hERG
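Further: peak tail current of the secondary pulse compared with the same well before compound.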

human ether-à-go-go-related gene (hERG) potassium channel, sequence (Q12809 whole entry, looked up): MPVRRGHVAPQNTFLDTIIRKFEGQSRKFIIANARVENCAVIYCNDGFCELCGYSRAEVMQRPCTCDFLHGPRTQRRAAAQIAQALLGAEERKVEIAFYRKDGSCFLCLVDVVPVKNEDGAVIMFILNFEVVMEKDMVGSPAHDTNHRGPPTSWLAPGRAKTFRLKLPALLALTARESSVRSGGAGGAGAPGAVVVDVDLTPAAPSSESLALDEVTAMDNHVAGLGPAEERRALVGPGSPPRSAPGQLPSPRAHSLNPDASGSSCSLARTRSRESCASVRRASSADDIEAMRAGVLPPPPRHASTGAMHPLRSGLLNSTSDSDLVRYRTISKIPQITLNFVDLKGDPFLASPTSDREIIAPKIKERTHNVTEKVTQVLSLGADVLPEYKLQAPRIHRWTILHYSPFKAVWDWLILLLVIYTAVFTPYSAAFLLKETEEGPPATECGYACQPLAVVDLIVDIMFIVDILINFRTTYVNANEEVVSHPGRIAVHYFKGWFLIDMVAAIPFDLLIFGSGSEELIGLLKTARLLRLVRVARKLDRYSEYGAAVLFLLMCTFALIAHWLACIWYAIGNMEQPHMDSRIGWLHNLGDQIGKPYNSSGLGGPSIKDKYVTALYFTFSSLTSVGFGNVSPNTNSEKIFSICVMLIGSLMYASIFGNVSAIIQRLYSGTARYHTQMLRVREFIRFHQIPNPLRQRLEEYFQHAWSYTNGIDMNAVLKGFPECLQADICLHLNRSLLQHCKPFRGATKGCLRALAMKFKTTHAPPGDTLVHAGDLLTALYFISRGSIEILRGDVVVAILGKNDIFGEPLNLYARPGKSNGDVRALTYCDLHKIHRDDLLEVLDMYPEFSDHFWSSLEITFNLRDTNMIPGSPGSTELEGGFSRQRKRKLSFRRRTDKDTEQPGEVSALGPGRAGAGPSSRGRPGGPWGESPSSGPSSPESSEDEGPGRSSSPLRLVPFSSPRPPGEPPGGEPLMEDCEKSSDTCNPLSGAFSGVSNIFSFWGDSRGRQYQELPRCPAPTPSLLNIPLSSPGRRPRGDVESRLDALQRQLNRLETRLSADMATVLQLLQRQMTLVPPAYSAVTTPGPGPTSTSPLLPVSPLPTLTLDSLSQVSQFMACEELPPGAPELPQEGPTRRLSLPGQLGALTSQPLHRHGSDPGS

SMILES	hERG current change (%, negative = inhibition) at 10uM [%]
Cc1ccc(S(=O)(=O)Nc2cc(-c3ccccc3)nn2C)cc1	21.1
COc1cccc(C2(O)CCN(CC(=O)Nc3nc(C)cs3)CC2)c1	20
NC(=O)CC(NC(=O)Cc1ccc(Br)cc1)c1ccc(NCCN2CCCC2)c([N+](=O)[O-])c1 (stereo not drawn)	-9.92
CCCc1[nH]nc2c1C(c1ccc(OC)c(CSC3=NCCS3)c1)C(C#N)=C(N)O2 (stereo not drawn)	-7.54
O=S(=O)(NCCS(=O)(=O)N1CCN(c2ccccc2)CC1)c1ccc(F)cc1	-2.91
O=C(OCC(=O)c1ccco1)c1ccc2ncsc2c1	-3.11
CS(=O)(=O)N(CC(=O)N1CCC(C(N)=O)CC1)c1cc(C(F)(F)F)ccc1Cl	10.6
NC(=O)N/N=C/c1sc(N2CCCCC2)nc1-c1cccs1	-21.2
O=C(NCC(c1ccco1)N1CCCC1)c1ccc(Cl)cc1 (stereo not drawn)	-22.8
COc1ccc(CCNC(=O)c2ccc3nc(-c4ccco4)c(-c4ccco4)nc3c2)cc1OC	-0.346
COc1ccc([N+](=O)[O-])cc1NC(=O)c1cn(-c2ccc(Cl)cc2)c(=O)c2ccccc12	14.9
Clc1nc(-c2cccnc2)nc2scc(-c3ccccc3)c12	4.7
C=Cc1ccc2c(c1)OCCOCCOCCOCCOCCO2	-71.2
CC(CC(=O)NCc1ccc(Cl)cc1)S(=O)(=O)c1ccc2c(c1)NC(=O)CO2 (stereo not drawn)	-30.6
CCCOc1ccc2c3c(c(=O)oc2c1)CCCC3	-3.23
Cc1ccc(-n2nc3c(n2)/C(=N/O)CC/C3=N\O)cc1	-1.93
c1ccc(C2[C@H]3CN(Cc4cccnc4)[C@H](c4ccccc4)C34CC2(c2ccccc2)C4)cc1 (stereo partly drawn)	-17.6
CCOc1ccc(NC(=O)CC2C(=O)N(c3ccccc3)C(=O)N2CCc2cccs2)cc1 (stereo not drawn)	-28.2
O=C(CN1C(=O)c2cccc3cccc(c23)C1=O)N1CCCCC1	0.0571
CCN(CC)CCCOC(=O)C(c1ccccc1)c1ccccc1.Cl	-56.5
CCC1C(=O)CC(c2ccccc2)NC1c1ccccc1 (stereo not drawn)	-21.4
COc1cc2[nH]c(=S)n(C3CCCC3)c(=O)c2cc1OC	5.28
C1COCCO1.Cc1onc(-c2ccccc2)c1C(=O)Nc1ccccc1C#N	4.1
O=S(=O)(/N=C(/Nc1ccccc1F)c1ccccc1)c1ccccc1	4.57
Cc1ccsc1C(=O)C1CCCN(Cc2cccc(OCCO)c2)C1 (stereo not drawn)	-16.3
CCCCN(CCCC)Cc1ccc(C(=O)NN)o1	5.36
CC(C)c1ccc(CN(C(=O)c2cccs2)C2CCS(=O)(=O)C2)cc1 (stereo not drawn)	-45.9

SMILES	hERG current change (%, negative = inhibition) at 10uM [%]
COC(=O)c1ccc(N2CCN(C)CC2)c(NC(=O)c2cccnc2)c1	-2.77
CCn1cc(C(=O)NC2CCCc3c2cnn3-c2cccc(C)c2C)cn1 (stereo not drawn)	12.4
O=C1CC(C(=O)Nc2ccccc2)S/C(=N\NC(=O)c2ccccc2Cl)N1 (stereo not drawn)	16.5
CC1CCCN(C(=O)CCCn2c(=S)[nH]c3ccccc3c2=O)C1 (stereo not drawn)	-1.31
CCOc1cccc(C(=O)Nc2ccc(NC(=O)c3ccccc3)c(C)c2)c1	-16.3
COc1ccc2cc3c(N)nn(C(=O)c4ccc(F)cc4)c3nc2c1	11.4
O=C(Cc1cccs1)N1CCC(c2nc3c(nnn3Cc3ccccc3)c(=O)[nH]2)CC1	-56
O=C(Cc1cc(=O)[nH]c(=O)[nH]1)NCC1CCCO1 (stereo not drawn)	5.69
O=C(c1ccc(Cl)cc1)c1ccc(Oc2cc(NN3CCCCC3)c([N+](=O)[O-])cc2[N+](=O)[O-])cc1	0.565
O=C(CCC(=O)Nc1nnc(C2CCCCC2)s1)Nc1ccccc1	27.6
CCN1CCN(Cc2ccc(NC(=O)c3ccc(C)c(NC(=O)C(=O)c4c[nH]c5ccccc45)c3)cc2C(F)(F)F)CC1	9.38
COc1ccc(NC(=O)COC(=O)CCCC2=NS(=O)(=O)c3ccccc3N2)cc1	15.3
O=C(NCCCCCCNC(=O)OCCO)OCCO	28.4
CCOc1ccc(C2NC(=O)c3sc(=S)n(-c4ccccc4)c3N2)cc1 (stereo not drawn)	1.7
Cc1cc(C)n2nc(SCCCC(=O)c3ccc(F)cc3)nc2n1	-13.9
C=CCn1c(O)c(/C=N/NC(=O)c2ccncc2)c(=O)[nH]c1=O	20.2
O=C(NC1CCC(O)CC1)c1cccc2cccnc12 (stereo not drawn)	7.2
CCN1C(=O)/C(=C/c2cccs2)S/C1=N\S(=O)(=O)c1ccc(C)cc1	23.1
COc1c2ccoc2c(OC)c2oc(=O)ccc12	-5.65
N#Cc1ccccc1COc1ccc(/C=C/C(=O)O)cc1	17.8
COc1ccc(OC)c(C(C(=O)NC2CCCCC2)N(C(=O)c2snc(C(N)=O)c2N)c2ccccc2OC)c1 (stereo not drawn)	14.8
CC(C)(C)[C@H]1C=C(C(=O)NCc2nc3ccccc3[nH]2)O[C@@H](OCCCCO)C1	-18
Fc1ccc(-c2noc(C3CCN(Cc4cccnc4)CC3)n2)cc1	-51.5
COc1ccc2c(c1)[C@H]1[C@H](CO2)[C@H](c2ccccc2)[C@]2(C)C(=O)Nc3cc(F)c(F)cc3C(=O)N12	5.99
CSc1ccc(NC(=O)Nc2ccccc2C(N)=O)cc1	7.02
CC(C)c1ccc(NC(=O)COC(=O)c2cc(=O)[nH]c3ccccc23)cc1	-8.12
CC1(OC(=O)C2CCCC2)C(=O)C=C2C=C(c3ccsc3)N(C3CC3)C=C2C1=O (stereo not drawn)	16.5
